# From the supplement of paper PMC8183993
# Structures can show the parent of a compound that is named as a salt. ± gives the standard deviation of the averaged measurements. In all, about 3,200 compounds were measured (“nuclei count (viability) relative to DMSO”: median about 99, lowest 2% from about 16 on). The list shows a part of the results.
# Tested on: U2OS
# Assay: nuclei count (viability) relative to DMSO (% of DMSO); higher = more viable cells
# Conditions: 10 µM; 24 h
# Method: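 Primary image-based screen in U2OS cells: compounds at 10 uM for 24 h, then a 1 h o-propargyl-puromycin (OPP) pulse, click labelling, and high-throughput microscopy. Mean cytoplasmic OPP intensity and nuclei count were normalised to DMSO wells within each plate (DMSO = 100) and averaged over triplicate plates.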
row,SMILES,nuclei count
1,CC(C)[C@H](CO)Nc1nc(Nc2ccc(C(=O)O)c(Cl)c2)c2ncn(C(C)C)c2n1 [Purvalanol B],94.2
2,COc1cc(COc2cc(N)c(Cl)cc2C(=O)CCC2CCN(CCNS(C)(=O)=O)CC2)cc(OC)c1,104
3,CC(C)(C)[N+]([O-])=Cc1ccc(S(=O)(=O)O)cc1S(=O)(=O)O,108
4,C[C@H](CCC(=O)NCCS(=O)(=O)O)[C@H]1CC[C@H]2[C@@H]3CC[C@@H]4C[C@H](O)CC[C@]4(C)[C@H]3C[C@H](O)[C@]12C [Taurodeoxycholic acid],98.8
5,COC(=O)[C@@H]1CC2=CC(=O)CC[C@]2(C)[C@@]23O[C@@H]2C[C@@]2(C)[C@@H](CC[C@@]24CCC(=O)O4)[C@H]13 [Eplerenone],104 ± 3.6
6,CC(C)OC(=O)C1=CN(C(=O)c2ccc(F)c(F)c2)CC(C)(C)c2c1[nH]c1ccccc21,107
7,CN1CCN(C(c2ccccc2)c2ccccc2)CC1 [Cyclizine hydrochloride],108
8,Cc1ccc(F)c(NC(=O)Nc2ccc(-c3cccc4[nH]nc(N)c34)cc2)c1 [Linifanib (ABT-869)],79.3
9,C[C@]12CC[C@@H]3c4ccc(OC(=O)c5ccccc5)cc4CC[C@H]3[C@@H]1CC[C@@H]2O [Estradiol Benzoate],98.4
10,CCS(=O)(=O)N1CCC[C@@H]2CN3CCc4cc(OC)ccc4[C@@H]3C[C@@H]21,101
11,CN(c1nccc(=O)[nH]1)C1CCN(c2nc3ccccc3n2Cc2ccc(F)cc2)CC1 [Mizolastine],104
12,O=C(O)c1ccccc1C(=O)Nc1ccc(S(=O)(=O)Nc2nccs2)cc1 [Phthalylsulfathiazole],118
13,"CC[C@H](CO)Nc1nc(NCc2ccccc2)c2ncn(C(C)C)c2n1 [Roscovitine (Seliciclib, CYC202)]",67.6
14,Cc1ccc(NC(=O)c2cccc(C(C)(C)C#N)c2)cc1Nc1ccc2ncn(C)c(=O)c2c1,89.2 ± 3.6
15,CC(CCCCC(=O)Nc1ccc(C(F)(F)F)cc1)NCCc1cnc[nH]1 (stereo unspecified) [HTMT dimaleate],99.4
16,OCCN(CCO)c1nc(N2CCCCC2)c2nc(N(CCO)CCO)nc(N3CCCCC3)c2n1 [Dipyridamole],98.26 ± 0.46
17,N#Cc1cc2nc(O)c(O)nc2cc1[N+](=O)[O-] [CNQX disodium salt],90.9
18,COC(=O)C1=C(C#N)NC(C)=C(C(=O)OC(C)C)C1c1cccc([N+](=O)[O-])c1 (stereo unspecified) [Nilvadipine],100
19,COC(=O)[C@H](NC(=O)c1cc(-c2ccccc2)nc2ccccc12)c1ccccc1,94.5
20,CC1CC(OC(=O)c2ccccc2O)CC(C)(C)C1 (stereo unspecified) [Homosalate],102
21,CNc1nc(Nc2cn(C(C)(C)C#N)nc2C)ncc1C(F)(F)F,101
22,C[C@@H](CN1CCC(Cc2ccccc2)CC1)[C@@H](O)c1ccc(O)cc1 [Ro 25-6981 maleate],102
23,COCCCN1CCC(NC(=O)c2cc(Cl)c(N)c3c2OCC3)CC1 [Prucalopride],103
24,Nc1nc(-c2ccc(Cl)c(Cl)c2)c(-c2ccncc2)s1 [CGH 2466 dihydrochloride],94.1
25,NC[C@@H]1O[C@@H](O[C@H]2[C@H](O)[C@@H](O[C@H]3O[C@H](CO)[C@@H](O)[C@H](N)[C@H]3O)[C@H](N)C[C@@H]2N)[C@@H](O)[C@H](O)[C@H]1O [Kanamycin A sulfate],98.9
26,"CCCCC/C=C/C=C1/C(=O)C=C[C@@H]1C/C=C\CCCC(=O)O [15-Deoxy-D12,14-prostaglandin J2]",85.6

row,SMILES,nuclei count
1,N[C@@H](CS(=O)O)C(=O)O [L-Cysteinesulfinic acid],102
2,O=C(Nc1ccncc1)c1cc([N+](=O)[O-])ccc1Cl,85.4
3,O=C(CCCN1CCN(c2ccccn2)CC1)c1ccc(F)cc1 [Azaperone],85.2
4,CCCCCCNC(=O)Nc1ccc(S(=O)(=O)Nc2ccc(CCNC[C@H](O)COc3ccc(O)cc3)cc2)cc1,99.9
5,C[C@H](CCC(=O)O)[C@H]1CC[C@H]2[C@@H]3[C@@H](O)C[C@@H]4C[C@H](O)CC[C@]4(C)[C@H]3CC[C@]12C [Urosiol],110
6,C[C@H](CCC(=O)O)[C@H]1CC[C@H]2[C@@H]3[C@@H](O)C[C@@H]4C[C@H](O)CC[C@]4(C)[C@H]3CC[C@]12C [Ursodiol (Actigal Urso)],93.1
7,C#C[C@]1(O)CC[C@H]2[C@@H]3CCC4=CCCC[C@@H]4[C@H]3CC[C@@]21C [Lynestrenol],105
8,Cc1ccc(=O)n(-c2ccccc2)c1 [Pirfenidone],106
9,CN1CCC(=C2c3ccccc3Sc3ccccc32)CC1 [Pimethixene maleate],114
10,N[C@@H](Cc1cc(I)c(Oc2ccc(O)c(I)c2)c(I)c1)C(=O)O [Liothyronine],97
11,Cc1cc(CN2CCN(c3c(Br)cnc4nc(-c5ccc(N6CCN(C)CC6)cc5)[nH]c34)CC2)no1,46.25 ± 0.29
12,COc1ccc(C2CC(=O)c3c(O)cc(OC4OC(COC5OC(C)C(O)C(O)C5O)C(O)C(O)C4O)cc3O2)cc1OC (stereo unspecified) [Methyl-Hesperidin],87.7
13,CCC(=O)NC1Cc2ccccc2C(c2ccccc2)C1 (stereo unspecified),98.7
14,Cl/C(=C\n1cncn1)c1ccc(Cl)cc1Cl [Loreclezole hydrochloride],92
15,CN(C)C(=O)[C@H](O)[C@H](Cc1ccccc1)NC(=O)c1cc2cc(Cl)ccc2[nH]1,115
16,CC1(C(=O)O)NCCc2cc(O)c(O)cc21 (stereo unspecified) [Salsolinol-1-carboxylic acid],103
17,CC(C)(C)c1ccc(S(=O)(=O)/C=C/C#N)cc1,43.7
18,CN1CCCN=C1/C=C/c1cccc(O)c1 [Oxantel pamoate],103
19,CCCCC[C@H](O)/C=C/[C@@H]1[C@H]2C/C(=C/CCCC(=O)O)C[C@H]2C[C@H]1O [Carbacyclin],97.8
20,CC(N)CCCC(C)(C)O (stereo unspecified) [Heptaminol hydrochloride],104
21,CCN1C[C@H](C)n2c(c(O)c3c(=O)n(Cc4ccc(F)c(Cl)c4)nc(C(=O)NC)c32)C1=O,108
22,"O=C(O)c1cc(=O)c2c(Cl)cc(Cl)cc2[nH]1 [5,7-Dichlorokynurenic acid]",97.4
23,Clc1ccccc1CNCC1CCC(CNCc2ccccc2Cl)CC1 (stereo unspecified),105
24,CCCNC(=O)Nc1ccc(Oc2ncnc3cc(OC)c(OC)cc23)cc1Cl,104
25,CN(C)C(=O)C(=O)c1cn(C)c2cc(Cl)c(C(=O)N3CCC(Cc4ccc(F)cc4)CC3)cc12,92.4
26,O=C(NCCCCN1CCN(c2cccc(Cl)c2Cl)CC1)c1ccc2c(c1)Cc1ccccc1-2,100

row,SMILES,nuclei count
1,C[C@@H](O[C@H]1OCCN(Cc2n[nH]c(=O)[nH]2)[C@H]1c1ccc(F)cc1)c1cc(C(F)(F)F)cc(C(F)(F)F)c1 [Aprepitant (MK-0869)],92.5
2,C[C@@H](O[C@H]1OCCN(Cc2n[nH]c(=O)[nH]2)[C@H]1c1ccc(F)cc1)c1cc(C(F)(F)F)cc(C(F)(F)F)c1 [Aprepitant],92.1
3,NC(=O)c1ccc(-c2nc(-c3ccccn3)c(-c3ccc4c(c3)OCO4)[nH]2)cc1,102
4,Cc1cn(-c2cc(NC(=O)c3ccc(C)c(Nc4nccc(-c5cccnc5)n4)c3)cc(C(F)(F)F)c2)cn1 [Nilotinib (AMN-107)],91.4
5,Cc1cc2c(s1)Nc1ccccc1N=C2N1CCN(C)CC1 [Olanzapine],93.8
6,CN1C(=O)C(Cc2c[nH]c3ccccc23)NC1=S (stereo unspecified) [Necrostatin-1],102
7,Cc1cc(C(=O)O)sc1C(N)C(=O)O (stereo unspecified),95.8
8,COc1cc2c(NC3CCN(C)CC3)nc(N3CCCN(C)CC3)nc2cc1OCCCN(C)C,103
9,CC=CC1=C(C(=O)O)N2C(=O)[C@@H](NC(=O)[C@H](N)c3ccc(O)cc3)[C@H]2SC1 [Cefprozil hydrate (Cefzil)],92.9
10,O=S(=O)(O)Oc1ccc(C(c2ccc(OS(=O)(=O)O)cc2)c2ccccn2)cc1 [Sodium Picosulfate],104
11,NC(=O)CC[C@H](N)C(=O)O [L-Glutamine],90.7
12,CCn1c(-c2nonc2N)nc2c(C#CC(C)(C)O)ncc(OC[C@H]3CCCNC3)c21,79.3 ± 6.4
13,CCN(CC)CCOc1ccc(Nc2ncc3cc(-c4c(Cl)cccc4Cl)c(=O)n(C)c3n2)cc1,7.54
14,"Cc1c(O)c(=O)n(-c2ccccc2)n1C [Antipyrine, 4-hydroxy]",101
15,CC(C)OC(=O)C(C)(C)Oc1ccc(C(=O)c2ccc(Cl)cc2)cc1 [Fenofibrate],109
16,Cn1cc(/C=C2\C(=O)Nc3cccnc32)c2ccccc21,87.7
17,Cc1ccc(NC(=O)C2(c3ccc4c(c3)OC(F)(F)O4)CC2)nc1-c1cccc(C(=O)O)c1,101
18,CN1CCCN(C(c2ccccc2)c2ccc(Cl)cc2)CC1 (stereo unspecified) [Homochlorcyclizine dihydrochloride],91.1
19,C[C@@H]1C[C@H]2[C@@H]3CCC4=CC(=O)C=C[C@]4(C)[C@@]3(Cl)[C@@H](O)C[C@]2(C)[C@@]1(OC(=O)c1ccco1)C(=O)CCl [Mometasone furoate],91.7 ± 6.1
20,CCOC(=O)c1cnc2c(cnn2CC)c1NN=C(C)C [Etazolate hydrochloride],106
21,O=C(O)[C@H](CC(=O)N1C[C@H]2CCCC[C@H]2C1)Cc1ccccc1 [Mitiglinide calcium],101
22,C[C@]12CCC3=C4CCC(=O)C=C4CC[C@H]3[C@@H]1CC[C@@]2(O)CC#N [Dienogest],107
23,COc1cc2ncnc(-n3nc(-c4ccccn4)nc3N)c2cc1OC,106
24,Nc1ncnc2c1ncn2C1OC(COP(=O)(O)O)C(O)C1O (stereo unspecified) [Adenosine 5'-monophosphate monohydrate],94.7
